Over roughly 4,500 sequences, “median log2 fold change of GCK-ALFA target abundance (FLAG IP / Myc IP barcode read proportion)” has its median near 0.078; the lowest 2% begin near -0.6. Some of the results follow.
B1: GBRAP_172_4998 (protein)
chain: KVKKVLLVFEDASLEEIIEAVLEEARKAKEEGYDFIVIGVVATHPLSSEELEEALKEALEKENIIDFEVLAESVPAAELDAAAARMKAAVETEALNREEE
B2: GBRAP_160_4832 (protein)
chain: MEKVEEAKEFIREEIEEILEMMEGETTEERAAIVAVGFGEIIMYLEEKGVATDELEDFIVEKEDEVVATILANPDLTDEELEELLEEAEEELIAELEKVA
B3: GBRAP_83_6948 (protein)
chain: KEKLVVAANDDNVAEAVAIAEDLAKTGKYDVTLEFIGGVEAAEKLLKEVAKAWAKGVTFDVEVLLRGATEEEAEKIKAAFEKVAKAAGKDVKVEVHVIKP
B4: GBRAP_52_6160 (protein)
chain: AEARARAMADEILAAVRAGDEEKLDELLRRAAKELSQEELELMLAHIAEAVAGLTPAEAEAVVEAAIRFEDLAVEAGHDEELLSYQLARVAAAAYKQLQA
B5: GBRAP_64_6490 (protein)
chain: DEEIKKLLEELEEAVKELEKAVAGLSPELQKKVKEVLELVEKAKTASLEERLDLVVEAAKLLNEILKNPELTPEQKDLAAEALDLASELAWLLFEKEEEE
B6: GBRAP_52_6029 (protein)
chain: MRAELQAKVDEILALVKAGKLEEAAKAAKELVASLNEEEVELLIDVIAERAAAAAPEDQDAVWQLAEIFAKALEEAGYDEVLADDLLARTAAALYEAEQR
B7: GBRAP_160_4565 (protein)
chain: MERVKELVEELRKDVEETLEETKDDSVENLRTALSGVIGSHAMEAAEDPRFSDEMVDILLEARDRIEAYLKEHKDASVEEIRKEVLKIVDEAGKKMLELA
B8: GBRAP_26_5478 (protein)
chain: IEEEVRKVLEELEKLLKELLDPELAAAALAEATTIIIEAAEKMEENKNDEEKLKEIVKEAVEELRRELETLGVSEEKREQIVEKAREGLERIAKKILEES
B9: GBRAP_128_3447 (protein)
chain: SMEEREERAKKVAKEFEEKLKEGPEAAAEFFIEEVEKADLEEVELITEAVVEVLRTLDNETAEKVVDLILKLSERLSPEKRAIVAVILSPLIFELVEKEE
B10: GBRAP_128_3423 (protein)
chain: MSEEKVKEAKKLLEEMLTADKEEAKKLAEELAELFLESDLETAEKIAEVIKEMLPKFTAEHLEILADALEKALPKLTPEKANVAADVIVDLLNEAEELEE
B11: GBRAP_43_5742 (protein)
chain: SKELVEGALDFTKLLAEDPEIDEETKLKAFIDTLRLIADEKVKAKEELVEAAKALAKSLSEENVKKAIAEIDRLAKENPEVKETFEAARKALLEELEKRK
B12: GBRAP_122_2942 (protein)
chain: DPTEERLAALIARIVAALDAGDAAALAAAADELVRLFETVTPEQARAAAERLLEAVADDEEKLEAALQAMLAAFERHQPLTPAQEVAADIFAEAFDELSE
B13: GBRAP_78_6662 (protein)
chain: EIEELIDKALEEISKAARLTKELPEEDRNEVLGLLVDAASDLVEAEEEGGNLELLKEALKSLKEAIKLLKELKTPEAEKVLKEVEEAKKYVEEAIKLKEK
B14: GBRAP_160_4804 (protein)
chain: MEKVEKLLEEARKDLLDTAEAAADLPVEDLAALLRAEGYTEILELEEELGLSDETVEELDKVVDDMVATLLANPDLTPEQVRALVEEAAERIEEIVLKEA
B15: GBRAP_128_3547 (protein)
chain: SLEEARERAREAVERIKASDVETAYEITVELLEELKTWSLEEVEAAVEELEKRLPELSAEKLEAVADAIEETRGEHSPEKQELLAGVEVDALNLAEEQEE
B16: GBRAP_78_6607 (protein)
chain: ETKEKIKKLLEEAERLMRQIAEIQPEVADQANEAAVAVGTALLAVETGEESKEEIKELVEEALKIAEELLKLLEGKSPEAQKLAEEAIKKLEEALKLLKE
B17: GBRAP_83_6969 (protein)
chain: MEKVDVVTTPDHVEEAADAARDLAEEEGYEVTVVLVGKPEEVLESAKIVAEKLKDLPNVSIEAAVENVRKEEAEKTKKELEEIGKKYGLKVEFHAELIEE
B18: GBRAP_52_6235 (protein)
chain: MRERMRRLAREIVELVLEGREEEARRLAREVAETLDDEELRILVEEFARLAEEAAPEDLDAVWRAVEIVAEALEEAGRPEILADDLESRTAAAIVKVEAK
B19: GBRAP_35_5504 (protein)
chain: SSMSTEADMLVATIEDLVLAIPDLPVEQATAIAESLIRSAEELAEDLEDDAENLERLKEAMKALLEALKKHYGDDPLAQEVAKRIEELIEKLEEKLKKAK
B20: GBRAP_160_4497 (protein)
chain: SERKERAKERARELVEEAAEAIREEEGEGKEQIARAYAGDIALELLELGVVSEEQEEEVLRLAEEGFRRMVEASEKGEEELERAAEELKRRLEELIEEFA
B21: GBRAP_128_3503 (protein)
chain: SLEEAVERVRELMRRIGEAGPEEARELVRELAALLASADRETAEAIAEAAIEELPKLNREALLVVADTLRELLPSLDPYKANLVADIQVEALNLALEKEE
B22: GBRAP_160_4135 (protein)
chain: SEELEKLIKEIKEIGEEALEMIEGETPENAKVIARVALGDIVMLVESNDAISEETEDEIGKIADEAEATLKANPDLTVEEIKALLKEATEKVVEIIEKEK
B23: GBRAP_80_6825 (protein)
chain: MEERLEKVLEEIEKIDKEIAEIVREIVELARALGVPLEVLLRYAEAILELAKKDKEKALELAKRTLEEVRELAARGDREGVLAVLAEAESDALLEVEELE
B24: GBRAP_26_5439 (protein)
chain: IEEVEREAIERIAEVAAKIGDPEKAAAALAEAITLLHEFVERAEEEDLSEEELEELAEELVEELREFLEDLGLSEELRRELVETFREALRRIREALLKER
B25: GBRAP_74_6519 (protein)
chain: EEELLAALEAAAAAGDAATAVALARRIVAEGSLEAVERAARIMVAFVERHADALSPEELEAVADALAELADELMLRGGDSEVVLAVARAAVALEERRRAL
B26: GBRAP_35_5621 (protein)
chain: GSAEEVLEDALDVLEDAVEALETEDKKTMAEALVKVAEAFVEIAEEEKDEVEKAPEYLKKAIELLERALEILKKYPELEEYAKRVEELKKRLEKLLKELK
B27: GBRAP_52_6260 (protein)
chain: MRERLRALVEEILELVKAGRLEEARALATELAETFNEEELEIFIEEAAELARRSSKEEVEDLIRMAELVAEALEEAGRPEELVSLFEARVYGAIYETEKR
B28: GBRAP_160_4172 (protein)
chain: SETLEEAEKEITEIFDEAVEMMKGQTAAERAAIARVAFGEIILLLEEKGLLTDELDEHIDEVEDEVVTTILANPDLTDEELEALFTEAREKIIEALKKSS
B29: GBRAP_52_6146 (protein)
chain: KVEEFEKLLLEAVKAKKEGKEEEKEKLIKEAAELAKEMTEEEIEEAVERAVKKLKKEDLDAFMEVAIELAEEMLKAGMDERKASTFLGAAARAAYKKELE

The binders below were run against GABARAP, O95166 (assay: median log2 fold change of GCK-ALFA target abundance (FLAG IP / Myc IP barcode read proportion) (log2 ratio); each designed protein is fused to an ALFA-tag nanobody in HEK293 cells to bring the named protein to FLAG-tagged glucokinase (GCK); Myc marks an untargeted standard; higher = target protein stabilised (more abundant)). Settings: target protein: 3xFLAG-MCP-GCK-ALFA reporter; HEK293 landing pad (RPLP).
GABARAP, O95166, sequence (O95166 whole entry, the tested form may be a part): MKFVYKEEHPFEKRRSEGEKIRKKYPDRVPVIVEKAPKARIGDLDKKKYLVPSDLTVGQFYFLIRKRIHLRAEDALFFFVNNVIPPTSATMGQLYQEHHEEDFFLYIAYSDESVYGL
Outline: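 The readout is target abundance, the per-binder median log2 ratio of FLAG to Myc barcode read proportions. It came from HEK293 landing-pad cells carrying a recombined ALFA-nanobody-fused binder library, induced with 2 μg mL^−1 doxycycline and transfected with a plasmid for a FLAG-tagged target and a Myc-tagged standard. After 48 h, lysates were immunoprecipitated with anti-FLAG and anti-Myc, and circular RNA barcodes were reverse transcribed, amplified and sequenced. Each barcode needed a proportion of at least 10^−7 in both replicates and each binder at least 3 barcodes per replicate, a pseudocount of 10^−6 was added, and the replicates were pooled.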

Compared with B1, B2 is lower in “median log2 fold change” value: 0.302 for the first, -0.524 for the second.

First: B3
Second: B4
The “median log2 fold change” value of the first is higher: 0.253 for the first, -0.109 for the second.

Compared with B5, B6 is higher in “median log2 fold change” value: -0.0828 for the first, 0.155 for the second.

B7 and B8 are within 0.2 log units of each other in “median log2 fold change” value: 0.289 for the first, 0.182 for the second.

B9 and B10 are within 0.2 log units of each other in “median log2 fold change” value: 0.0217 for the first, 0.132 for the second.

B11 and B12 are within 0.2 log units of each other in “median log2 fold change” value: 0.112 for the first, 0.188 for the second.

B13 and B14 are within 0.2 log units of each other in “median log2 fold change” value: 0.00267 for the first, -0.129 for the second.

Compared with B15, B16 is higher in “median log2 fold change” value: -0.126 for the first, 0.241 for the second.

B17 and B18 are within 0.2 log units of each other in “median log2 fold change” value: 0.0336 for the first, -0.0495 for the second.

Compared with B19, B20 is higher in “median log2 fold change” value: -0.0789 for the first, 0.292 for the second.

Compared with B21, B22 is lower in “median log2 fold change” value: 0.0815 for the first, -0.387 for the second.

First: B23
Second: B24
The “median log2 fold change” value of the first is higher: 0.188 for the first, -0.364 for the second.

B25 and B26 are within 0.2 log units of each other in “median log2 fold change” value: -0.0734 for the first, -0.0306 for the second.

B27 and B28 are within 0.2 log units of each other in “median log2 fold change” value: -0.0461 for the first, -0.144 for the second.

In the case of B29, the “median log2 fold change” value is reported as -0.0268.
